Values joined by “and” are separate entries in the source; they are usually repeats but may differ in a detail not shown here. Equal entries are not always repeated. The inconclusive results got no clear call from the source; some entries with a clear call stand among them for comparison. For part of these data: Where the call is inconclusive, the potency comes from a doubtful curve fit. A structure can be active in one record and inactive in another. Active and inactive are the calls of the source. Unless noted, calls come from the whole dose curve; as a rule, active = well fitted curve in the direction sought with a large enough effect in the repeat runs; inconclusive = weak or mixed curves; inactive = no such curve, though single readings can be large; an effect the other way counts as inactive or inconclusive.
Tests used:
[1] = qHTS assay to identify small molecule antagonists of the retinoid acid receptor (RAR) signaling pathway - cell viability counter screen (AID 1159551); note: nearly all actives have a fitted effect of over 35% in size
Procedure, shortened: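 ATP-based viability, C3RL4 cells, 6 h at 37 C with 1 uM final retinol co-added after compound; luminescence read 30 min post CellTiter-Glo, RT.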

[2] = qHTS assay to identify small molecule antagonists of the estrogen related receptor (ERR) signaling pathway from Tox21 library - cell viability counter screen (AID 1224834); note: nearly all actives have a fitted effect of over 30% in size
Procedure, shortened: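 Compounds in DMSO were pinned onto ERR cells that had been incubated for 6 h, and the plates were held at 37 C for 17.5 h. CellTiter-Fluor reagent was then added and fluorescence was measured after 30 min.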

[3] = qHTS assay to identify small molecule agonists of the constitutive androstane receptor (CAR) signaling pathway - cell viability counter screen (AID 1224836); note: nearly all actives have a fitted effect of over 45% in size
Procedure, shortened: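 HepG2 cells stably carrying hCAR and a CYP2B6-2.2kb reporter were plated 4 h, then given compounds at 15 concentrations plus PK11195 (final 0.75 uM). After 23 h at 37 C, viability was read by CellTiter-Fluor fluorescence.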

[4] = qHTS assay to identify small molecule antagonists of the constitutive androstane receptor (CAR) signaling pathway - cell viability counter screen (AID 1224837); note: nearly all actives have a fitted effect of over 45% in size
Procedure, shortened: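 Cells are seeded, rested 4 hr at 37 C/5% CO2, dosed with compound (15-point series) and 50 nM CITCO, incubated a further 23 hr, and then CellTiter-Fluor reagent is added before fluorescence is read. The line is HepG2 with stable hCAR and CYP2B6-2.2kb.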

[5] = qHTS assay to identify small molecule antagonists of the estrogen related receptor signaling pathway with the pleiotropic PPARgamma coactivator (PGC) from Tox21 10K library - cell viability counter screen (AID 1224840; active = well fitted cell-killing curve with a large enough effect in the repeat runs, not every such curve was filed as active; inconclusive = weak or mixed curves, or effect the other way; inactive = no such curve, though single readings can be large or run the other way; note: nearly all actives have a fitted effect of over 40% in size)
Procedure, shortened: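 Cell viability is measured by CellTiter-Fluor fluorescence in PGC/ERR cells that receive compounds after a 6-hour attachment period and are then incubated 17.5 hours at 37 C.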

[6] = molecular target: Thyrotropin receptor (Homo sapiens) (UniProt P16473); assay: qHTS assay to identify small molecule agonists of the thyroid stimulating hormone receptor (TSHR) signaling pathway (AID 1224843; calls by dose curve; note: nearly all actives have a fitted effect of over 45% in size; for activation: % is set by controls: 0 for no effect and ±100 for the full control effect); settings: TSHR-HEK293 cells, cAMP HTRF, agonist mode, 30 min; activation: at 92.4 µM (top of the series) unless noted
Procedure, shortened: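 A cell-based cAMP HTRF format was run in TSHR-transfected HEK293 cells, 800 per well. Treatment: 30 min, room temperature. Detection: 1 h with labelled cAMP and anti-cAMP cryptate. Concentration-response over 15 points, three replicates.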

[7] = qHTS assay to identify small molecule agonists of the hypoxia (HIF-1) signaling pathway - cell viability counter screen (AID 1224844; calls by dose curve; note: nearly all actives have a fitted effect of over 50% in size)
Procedure, shortened: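 Viability counter screen: HRE-bla ME-180 cells plated 5 hrs before compound addition, treated 17 hrs at 37C and 5% CO2, then CellTiter-Glo added after the FRET reporter read; luminescence after 30 min.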

[8] = molecular target: Nuclear receptor subfamily 1 group I member 3 (Homo sapiens) (UniProt Q14994); assay: qHTS assay to identify small molecule antagonists of the constitutive androstane receptor (CAR) signaling pathway (AID 1224838); note: nearly all actives have a fitted effect of over 40% in size
Procedure, shortened: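 Luminescence from a CYP2B6-2.2kb promoter reporter in hCAR-expressing HepG2 cells reflects CAR signaling. Cells received compounds at 15 concentrations and 50 nM CITCO (final), then incubated 24 h at 37 C/5% CO2.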

[9] = qHTS assay to identify small molecule agonists of the retinoic acid receptor (RAR) signaling pathway (AID 1159553); settings: C3RL4 RARE luciferase reporter, agonist, 6 h; activation: at 73.3 µM (top of the series) unless noted
Procedure, shortened: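 Quantitative high-throughput format: the Tox21 10K library was tested on C3RL4 RARE-luciferase cells for 6 hr at 37 C and 5% CO2, with luminescence measured after a 30 min room-temperature reagent step.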

[10] = qHTS assay to identify small molecule antagonists of the estrogen related receptor signaling pathway with the pleiotropic PPARgamma coactivator (PGC) from Tox21 10K library (AID 1224841; call rule not given here; note: actives are mostly falling curves and most rising ones were filed inactive; nearly all actives have a fitted effect of over 50% in size)
Procedure, shortened: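 Cells stably carrying the PGC/ERR reporter, seeded at 2,000 per well, received pin-transferred compounds 6 h post-plating. Exposure lasted 18 h at 37 C. Signal: One-Glo luminescence.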

[11] = qHTS assay to identify small molecule antagonists of the estrogen related receptor (ERR) signaling pathway - cell viability counter screen (AID 1224818);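 note: viability measured after 17.5 h of compound exposure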
Procedure, shortened: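 Quantitative high-throughput viability counter screen in ERR cells. Compounds (DMSO) incubated 17.5 h at 37 C; read-out was CellTiter-Fluor fluorescence.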

[12] = tested on: estrogen-related receptor alpha (ERRalpha) with PGC-1alpha coactivator, human; assay: qHTS assay to identify small molecule antagonists of the estrogen related receptor signaling pathway with the pleiotropic PPARgamma coactivator (PGC) (AID 1224821; calls by dose curve; note: nearly all actives have a fitted effect of over 50% in size)
Procedure, shortened: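 PGC/ERR reporter cells; 6 h pre-incubation 37 C/5% CO2; pin-tool compound in DMSO, 18 h 37 C; One-Glo added, 30 min RT; luminescence read. qHTS antagonist mode.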

[13] = qHTS assay to identify small molecule antagonists of the estrogen related receptor signaling pathway with the pleiotropic PPARgamma coactivator (PGC) cell viability counter screen (AID 1224822)
Procedure, shortened: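 Cytotoxicity in the PGC/ERR cell line is assessed with CellTiter-Fluor, read as fluorescence intensity 30 min after reagent addition, following 17.5 h compound treatment at 37 C.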

[14] = molecular target: Luciferin 4-monooxygenase (Photinus pyralis) (UniProt P08659); assay: qHTS assay to identify small molecule inhibitors of firefly luciferase (AID 1224835); note: nearly all actives have a fitted effect of over 25% in size
Procedure, shortened: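 Inhibition of purified Photinus luciferase is measured by luminescence. Substrate levels (D-luciferin, ATP) sit at their KM values. Each compound is tested in a concentration series.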

[15] = molecular target: Nuclear receptor subfamily 1 group I member 3 (Homo sapiens) (UniProt Q14994); assay: qHTS assay to identify small molecule agonists of the constitutive androstane receptor (CAR) signaling pathway (AID 1224839); note: nearly all actives have a fitted effect of over 15% in size
Procedure, shortened: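 HepG2 cells stably expressing hCAR and a CYP2B6-2.2kb luciferase reporter were treated with compounds at 15 concentrations plus 0.75 uM PK11195 (final) for 24 h at 37 C; luminescence was read after ONE-Glo addition.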
Potency is the fitted concentration of half-maximal effect; tags give direction and shape of the fitted curve or compound fluorescence and quenching.

Chain of UniProt Q14994 (Q14994 whole entry, looked up): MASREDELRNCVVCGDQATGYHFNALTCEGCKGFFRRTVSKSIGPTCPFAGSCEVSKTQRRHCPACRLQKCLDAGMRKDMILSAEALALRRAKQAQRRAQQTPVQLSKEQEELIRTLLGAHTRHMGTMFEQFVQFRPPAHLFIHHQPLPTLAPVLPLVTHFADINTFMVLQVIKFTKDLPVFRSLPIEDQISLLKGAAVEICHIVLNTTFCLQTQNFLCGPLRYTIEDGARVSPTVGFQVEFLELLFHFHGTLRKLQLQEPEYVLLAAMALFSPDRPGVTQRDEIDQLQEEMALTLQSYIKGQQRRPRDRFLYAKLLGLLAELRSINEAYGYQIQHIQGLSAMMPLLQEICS
Chain of UniProt P08659 (P08659 whole entry, looked up): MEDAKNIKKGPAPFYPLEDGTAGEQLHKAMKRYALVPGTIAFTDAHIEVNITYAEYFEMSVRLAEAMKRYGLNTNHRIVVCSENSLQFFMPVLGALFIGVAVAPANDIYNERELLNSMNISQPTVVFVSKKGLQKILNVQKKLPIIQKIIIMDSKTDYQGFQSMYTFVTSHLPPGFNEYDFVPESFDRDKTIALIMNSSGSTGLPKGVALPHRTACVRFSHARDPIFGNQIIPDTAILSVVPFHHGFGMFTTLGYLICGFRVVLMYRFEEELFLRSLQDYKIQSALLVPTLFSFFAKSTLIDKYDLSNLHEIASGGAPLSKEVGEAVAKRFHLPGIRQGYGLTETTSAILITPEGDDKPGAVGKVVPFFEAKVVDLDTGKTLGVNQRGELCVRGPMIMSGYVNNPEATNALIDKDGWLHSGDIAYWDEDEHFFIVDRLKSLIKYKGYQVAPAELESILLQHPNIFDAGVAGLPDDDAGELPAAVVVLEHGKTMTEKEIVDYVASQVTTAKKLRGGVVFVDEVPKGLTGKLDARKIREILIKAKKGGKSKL
Chain of UniProt P16473 (P16473 whole entry, looked up): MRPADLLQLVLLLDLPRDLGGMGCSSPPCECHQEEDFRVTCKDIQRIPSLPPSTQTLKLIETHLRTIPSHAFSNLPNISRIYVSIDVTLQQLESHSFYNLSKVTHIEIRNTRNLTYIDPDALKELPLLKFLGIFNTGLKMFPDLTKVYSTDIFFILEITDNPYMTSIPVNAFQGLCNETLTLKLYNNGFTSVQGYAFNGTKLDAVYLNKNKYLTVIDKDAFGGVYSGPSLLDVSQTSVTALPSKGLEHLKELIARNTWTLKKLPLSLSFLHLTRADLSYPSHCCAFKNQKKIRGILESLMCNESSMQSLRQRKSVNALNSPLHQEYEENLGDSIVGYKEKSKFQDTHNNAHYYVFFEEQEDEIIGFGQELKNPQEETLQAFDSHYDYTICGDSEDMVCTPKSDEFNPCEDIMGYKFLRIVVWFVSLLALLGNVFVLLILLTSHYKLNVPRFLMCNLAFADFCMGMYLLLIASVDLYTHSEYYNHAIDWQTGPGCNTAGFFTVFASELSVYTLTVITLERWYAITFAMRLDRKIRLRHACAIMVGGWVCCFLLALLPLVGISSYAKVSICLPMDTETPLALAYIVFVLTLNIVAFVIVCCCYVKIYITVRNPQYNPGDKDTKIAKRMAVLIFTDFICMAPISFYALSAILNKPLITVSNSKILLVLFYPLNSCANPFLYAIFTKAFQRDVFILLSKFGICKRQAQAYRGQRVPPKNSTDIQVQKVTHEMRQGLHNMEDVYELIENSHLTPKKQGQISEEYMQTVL

For `Cc1cc(Nc2ccc(O)cc2)ccc1N`, the Potency [1] was inconclusive: 68.2 µM [cytotoxic, single point], the Potency [2] was active: 30.5 µM and the Potency [3] was inconclusive: 54.2 µM [cytotoxic, partial curve]. For the same compound, the Potency [4] was inconclusive: 54.2 µM [cytotoxic, partial curve], the Potency [5] was active: 24.2 µM and the activation [6] was inconclusive: -12%. For the same compound, the Potency [7] was active: 24.4 µM.

In the case of `N#Cc1nc(Cl)c(Cl)c(Cl)c1Cl`, the Potency [1] is reported as inconclusive: 4.86 µM [rising, full curve, poor fit], the Potency [8] is reported as active: 24.3 µM and the Potency [5] is reported as active: 15.4 µM. The Potency [7] was active: 34.7 µM.

For `CN(C)C(=O)C1(N2CCCCC2)CCN(CC[C@@]2(c3ccc(Cl)c(Cl)c3)CN(C(=O)c3ccccc3)CCO2)CC1`, the Potency [1] was inconclusive: 64.1 µM [cytotoxic, single point], the Potency [9] was inconclusive: 64.1 µM [inhibitor, single point] and the Potency [3] was active: 50.9 µM. The Potency [6] was inconclusive: 50.9 µM [inhibitor, partial curve] and the Potency [7] was active: 45.8 µM.

With `Clc1nc(C(Cl)(Cl)Cl)c(Cl)c(Cl)c1Cl` the Potency [1] was inconclusive: 27.3 µM [cytotoxic], the Potency [2] was inconclusive: 43.3 µM [cytotoxic, partial curve] and the Potency [3] was inconclusive: 61.1 µM [cytotoxic, partial curve]. For the same compound, the Potency [5] was inconclusive: 27.3 µM [cytotoxic], the Potency [10] was inconclusive: 38.6 µM [falling, partial curve, poor fit] and the Potency [6] was inconclusive: 38.6 µM [inhibitor, partial curve]. The Potency [7] was active: 4.9 µM.

For `COc1cc(/C=C/C(=O)CC(=O)/C=C/c2ccc(O)c(OC)c2)ccc1O`, the Potency [1] was inconclusive: 27.5 µM, the Potency [9] was active: 9.75 µM and the Potency [3] was inconclusive: 24.5 µM [cytotoxic, full curve]. For the same compound, the Potency [5] was inconclusive: 30.8 µM [cytotoxic, full curve], the Potency [6] was inconclusive: 34.6 µM [activator, partial curve, poor fit] and the Potency [7] was active: 39.2 µM.

In the case of `CCN(CC)C(=S)SSC(=S)N(CC)CC`, the Potency [1] is reported as inconclusive: 217 nM [cytotoxic, full curve, poor fit] and inconclusive: 1.4 µM, the Potency [11] is reported as inconclusive: 7.7 µM [cytotoxic] and inconclusive: 16.2 µM [cytotoxic] and the Potency [12] is reported as active: 386 nM and active: 1.39 µM. For the same compound, the Potency [13] was active: 386 nM and active: 220 nM, the Potency [14] was active: 8.94 µM and active: 6.48 µM and active: 8.71 µM and the Potency [8] was active: 273 nM and active: 78.8 nM and active: 298 nM. The Potency [5] was active: 193 nM and active: 44.3 nM and active: 266 nM, the Potency [6] was inconclusive: 43.3 µM [activator] and inconclusive: 31.4 µM [activator] and inconclusive: 33.5 µM [activator, single point] and the Potency [7] was inconclusive: 219 nM [cytotoxic, full curve, poor fit] and active: 355 nM.

With `CCCCCCC(C)OC(=O)COc1nc(F)c(Cl)c(N)c1Cl` (stereo unspecified) the Potency [1] was inconclusive: 68.6 µM [cytotoxic, single point] and the Potency [2] was inconclusive: 68.6 µM [cytotoxic, single point].

In the case of `Cc1ccc(C(C)(C)C)c(O)c1`, the Potency [1] is reported as inconclusive: 59.1 µM [cytotoxic, single point] and inconclusive: 61.1 µM [cytotoxic], the Potency [2] is reported as inconclusive: 74.5 µM [cytotoxic, partial curve, poor fit] and the Potency [3] is reported as “inactive”. For the same compound, the Potency [8] was inconclusive: 30.6 µM [inhibitor, partial curve], the Potency [5] was inconclusive: 68.6 µM [cytotoxic] and the Potency [6] was inconclusive: 59.1 µM [inhibitor, partial curve, poor fit]. For the same compound, the activation [6] was inconclusive: -19.9% and the Potency [7] was inconclusive: 53.2 µM [cytotoxic, partial curve, poor fit] and inactive.

For `CC(Cc1ccc(O)c(O)c1)C(C)Cc1ccc(O)c(O)c1` (stereo unspecified), the Potency [1] was inconclusive: 1.93 µM [rising, full curve], the Potency [15] was inconclusive: 54.5 µM [activator, partial curve, poor fit] and the Potency [5] was inconclusive: 48.6 µM [cytotoxic, partial curve, poor fit].

From PubChem BioAssay (Tox21)
